The full ranking holds about 33,000 sequences; the median of “E-score (-0.5 to 0.5)” is about -0.011, and the highest 2% start at about 0.28. Some of the results follow.
molecular target: T1, Gcr1 (UniProt P07261); experiment: PBM E-score (8-mer binding enrichment) (E-score (-0.5 to 0.5)); higher = stronger / more preferred TF binding; most listed sequences are background and not binding sites; conditions: protein concentration: 100 nM; construct: GST-full length
T1 sequence: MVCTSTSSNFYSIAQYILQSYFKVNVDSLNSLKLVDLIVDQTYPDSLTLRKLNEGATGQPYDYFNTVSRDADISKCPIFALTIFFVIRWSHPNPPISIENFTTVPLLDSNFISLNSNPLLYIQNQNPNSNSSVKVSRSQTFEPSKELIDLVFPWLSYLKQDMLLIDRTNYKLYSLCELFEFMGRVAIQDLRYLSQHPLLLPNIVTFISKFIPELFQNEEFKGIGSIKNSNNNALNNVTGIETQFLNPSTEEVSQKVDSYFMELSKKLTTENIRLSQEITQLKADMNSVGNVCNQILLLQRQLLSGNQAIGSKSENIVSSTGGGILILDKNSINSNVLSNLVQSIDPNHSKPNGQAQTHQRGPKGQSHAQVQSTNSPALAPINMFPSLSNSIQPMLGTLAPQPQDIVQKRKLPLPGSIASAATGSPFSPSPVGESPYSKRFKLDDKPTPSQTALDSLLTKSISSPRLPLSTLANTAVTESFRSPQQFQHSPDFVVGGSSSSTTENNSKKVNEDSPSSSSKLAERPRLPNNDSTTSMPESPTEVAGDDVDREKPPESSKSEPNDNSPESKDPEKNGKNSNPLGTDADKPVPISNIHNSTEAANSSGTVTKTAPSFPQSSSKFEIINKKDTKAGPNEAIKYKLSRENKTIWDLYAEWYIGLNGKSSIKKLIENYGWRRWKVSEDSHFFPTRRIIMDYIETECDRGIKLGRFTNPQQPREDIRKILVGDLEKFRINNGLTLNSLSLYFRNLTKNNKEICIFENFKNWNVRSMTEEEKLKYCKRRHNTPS
Method: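 Universal 'all 10-mer' protein binding microarrays (Agilent AMADID 015681) probed with GST-tagged S. cerevisiae TFs (full-length or DBD) made by in vitro transcription/translation (PURExpress), about 100-200 nM. Bound TF was detected with fluorescent anti-GST. Each ungapped 8-mer (which stands for itself and its reverse complement) is scored by the PBM enrichment score (E-score), a modified Wilcoxon-Mann-Whitney statistic from -0.5 to +0.5, computed with the Universal PBM Analysis Suite. Scale: above 0.35 generally sequence-specific binding.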

Sequence | PBM E-score
ACAACAAG | 0.0442
GTGTATCA | -0.0606
GGACCCTA | 0.114
GCTGCGGA | 0.201
CGAGTAAC | -0.0385
CCCCAACG | -0.0912
ACTTCCCC | 0.0219
TTCGACAA | -0.00344
ACGTGCAT | -0.189
CTAGCACA | -0.181
ATATGGCA | -0.16
CACCCACG | 0.154
GCTGCCAA | 0.31
GATGTTGC | 0.0171
ACAGACTC | -0.182
CCGTTTAA | 0.179
AGTGTCTC | -0.0403
AATCCTCG | 0.0219
ACCAGTTA | 0.0951
CGCTGTCA | -0.0403
GTTCTTCA | 0.0436
AAATCGTA | 0.0191

Sequence | PBM E-score
GTGTGTGA | 0.0832
ATGGCAAC | 0.21
GAATGGTA | 0.105
CACACAGG | 0.00475
AAGATCGT | 0.131
ATGGTAAA | -0.154
CGGAATAA | -0.168
CTTTTTAC | 0.19
AGTTCTTG | -0.139
CACTGCAC | -0.29
CCCGGATC | 0.256
TGCACAAA | 0.034
AGCCATAC | 0.0935
AAAGATCC | 0.172
AGGTTCCG | 0.205
CTCTTTTA | -0.169
CAGGGTCG | -0.171
CCAGAACC | 0.274
CCAAAGCA | -0.0555
AATTACCC | 0.107
ATCCTTGC | -0.034
AACCATTG | -0.0706

Sequence | PBM E-score
GAAATGAA | 0.11
CAGAATGA | 0.0651
ACTACCTA | 0.0863
GGTTTGCA | 0.0915
AGCTTGGG | -0.116
CGACGAAG | -0.219
GTGTAGAA | -0.0005
CTATAGAC | -0.109
GCTCTGCC | -0.192
CCCTAGCA | 0.0999
CAGCGTCA | -0.0226
CCAGGTCA | -0.0391
AGCAAACA | 0.0357
GGGTTAAC | 0.0316
CATTGAGA | 0.11
GGATTCCC | 0.418
CATTGCGA | -0.0583
AGTTCCTG | 0.0262
CGTTCAAA | 0.097
CCTCTTAC | 0.142
TGGCTCAA | 0.0942
AATCTGAT | 0.0293

Sequence | PBM E-score
ACGACGGG | 0.00739
CTCATGCC | -0.195
AGCGAGAC | -0.0269
CTTTTGTA | 0.198
CTGCACCA | 0.0368
CCAGGCAA | -0.0954
CCTAGTAC | -0.0431
GTGGTGAA | 0.0386
TGCAACCA | 0.261
CCTGGACA | 0.0432
CACGGGCA | -0.0825
ATTCCCCA | 0.11
GGTTATCA | -0.0236
AACTTTGT | -0.09
CTTCTGGC | 0.144
CAGTAACC | 0.133
GGACCTAA | 0.0865
CATTCACG | -0.209
GGTGTGGA | 0.0228
CGCCTTAA | 0.0432

From the supplement of paper PMC3334620
